{"source": "PubChem BioAssay AID881", "about": "(National Center for Advancing Translational Sciences (NCATS), 2007)", "note": "Among all 110,000 compounds or so, about 610 (0.55%) were called active. Inconclusive means that the source gave no clear call. Such entries were picked first, then a sample of the others. Calls follow the shape of the dose curve; as a rule, active = well fitted inhibition curve with a large enough effect; inconclusive = small, poorly fitted or top-dose-only effect; inactive = no such curve, though single readings can be large or run the other way. Potencies of inconclusive entries are doubtful fits and often do not repeat. Where a SMILES comes first, the peptide text is derived from it. Bridges are numbered along the chain shown (N, C = ends). [ ]: non-standard residue; d: D form. The star is where a group is joined. ξ: configuration not given here. ξDab(CH2SO3H) = NC(CCNCS(=O)(=O)O)C(=O)O; Heptanoyl(6-Me) = CC(C)CCCCC(=O)*; Dab = NCC[CH](N)C(=O)O"}
{"target": "Polyunsaturated fatty acid lipoxygenase ALOX15B (Homo sapiens) (UniProt O15296)", "sequence (O15296 whole entry, looked up)": "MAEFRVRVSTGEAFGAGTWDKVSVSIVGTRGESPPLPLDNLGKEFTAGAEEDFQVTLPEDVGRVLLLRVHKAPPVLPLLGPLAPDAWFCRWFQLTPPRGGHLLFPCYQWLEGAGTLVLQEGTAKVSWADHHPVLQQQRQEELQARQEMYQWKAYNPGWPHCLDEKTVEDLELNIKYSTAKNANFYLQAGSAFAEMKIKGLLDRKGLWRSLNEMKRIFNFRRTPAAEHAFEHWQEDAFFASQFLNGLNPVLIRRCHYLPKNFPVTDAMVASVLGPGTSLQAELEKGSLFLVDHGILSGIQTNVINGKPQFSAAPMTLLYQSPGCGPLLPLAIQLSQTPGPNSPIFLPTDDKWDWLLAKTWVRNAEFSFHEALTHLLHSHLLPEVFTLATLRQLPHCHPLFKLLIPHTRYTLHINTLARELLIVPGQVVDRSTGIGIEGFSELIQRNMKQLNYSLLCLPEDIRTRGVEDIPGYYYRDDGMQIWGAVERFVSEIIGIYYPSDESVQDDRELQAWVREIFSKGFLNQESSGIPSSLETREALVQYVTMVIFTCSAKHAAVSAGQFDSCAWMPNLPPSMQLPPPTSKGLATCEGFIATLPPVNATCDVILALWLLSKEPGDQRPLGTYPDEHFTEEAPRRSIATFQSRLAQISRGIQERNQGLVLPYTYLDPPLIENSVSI", "experiment": "qHTS Assay for Inhibitors of 15-hLO-2 (15-human lipoxygenase 2); also: nearly all actives have a fitted effect of over 60% in size; also: potency is read from the fitted curve at half-maximal effect; tags tell the direction and shape of the fitted curve; as to activity change, negative = inhibition: % is scaled to controls: 0 for no effect and ±100 for the full control effect", "details": "purified 15hLO-2, xylenol orange hydroperoxide absorbance; activity change, negative = inhibition: at 57.1 µM (top of the series) unless noted", "in_short": "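Purified human 15hLO-2 (50 nM) preincubated 15 min with compound, then 45 uM arachidonic acid for 90 min at RT in 25 mM Hepes pH 7.5, 0.01% Triton X-100. Hydroperoxide detected by Fe-xylenol orange; 573/405 nm absorbance ratio.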"}
{"smiles": "COC(=O)c1sc(=S)n(-c2cc(F)ccc2F)c1N", "activity change, negative = inhibition": "inactive: -8.56%"}
{"smiles": "CCOc1ccc(NC(=S)N(Cc2ccc(Cl)cc2)Cc2ccco2)cc1", "Potency": "inconclusive: 25.1 µM [inhibitor, single point]"}
{"smiles": "CCOc1ccc(NC(=O)Cn2nnc(-c3ccccc3NC(=O)c3cccs3)n2)cc1", "Potency": "inconclusive: 15.8 µM [inhibitor, partial curve]"}
{"smiles": "Cc1ccc(NC(=O)CSc2nnc(-c3ccco3)c(-c3ccco3)n2)cc1", "Potency": "inconclusive: 6.31 µM [inhibitor, partial curve]"}
{"smiles": "COc1ccccc1CN1C(=O)CCC1(C)C(=O)NC1CCCCCC1", "note": "(centres undefined)", "activity change, negative = inhibition": "inactive: 0.0791%"}
{"smiles": "CCOc1ccc2[nH]c(=O)c(CN(Cc3nnnn3Cc3ccco3)C3CCCCC3)cc2c1", "Potency": "inconclusive: 3.16 µM [inhibitor, full curve]"}
{"smiles": "COC(=O)c1ccc(C(NC(=O)OCc2ccccc2)/C(F)=C/[C@@H](C)C(=O)NCc2ccc(OC)c(OC)c2)cc1", "note": "(some centres undefined)", "activity change, negative = inhibition": "inactive: -23.6%"}
{"smiles": "O=C(Nc1sc2c(c1C(=O)NCc1ccco1)CCCC2)c1ccc2c(c1)OCO2", "Potency": "inconclusive: 20 µM [inhibitor, single point]"}
{"smiles": "CCOc1ccc(N2C(=O)C(Cl)=C(Nc3ccccc3O)C2=O)cc1", "Potency": "inconclusive: 15.8 µM [inhibitor, partial curve]"}
{"smiles": "CC1(C(=O)Nc2nnc(SCc3ccccc3)s2)Cc2ccccc2C(=O)O1", "note": "(centres undefined)", "activity change, negative = inhibition": "inactive: -28.9%"}
{"smiles": "CNC1=CN(O)C(c2ccccc2)=c2cc(Cl)ccc2=N1", "activity change, negative = inhibition": "inactive: -3.62% [at 0.0915 µM]"}
{"smiles": "Sc1oc(-c2ccccc2)cc1C=Nc1ccccc1", "Potency": "inconclusive: 2.51 µM [inhibitor, full curve, poor fit]"}
{"smiles": "CCCC/C=C/C(NC(=O)c1ccco1)c1ccccc1", "note": "(centres undefined)", "activity change, negative = inhibition": "inactive: 1.45%"}
{"smiles": "Cc1cccc(N2CCN(c3ccc(NC(=O)/C=C(/C(=O)O)c4ccccc4)cc3)CC2)c1", "Potency": "inconclusive: 20 µM [inhibitor, single point]"}
{"smiles": "CCSC1=NC2(CCCCC2)Nc2sc3c(c21)CCCC3", "Potency": "inconclusive: 15.8 µM [inhibitor, partial curve]"}
{"smiles": "O=C(Nc1ccc(O)c2c(=O)cc(-c3ccccc3Cl)oc12)c1ccc(Br)cc1", "Potency": "inconclusive: 8.91 µM [inhibitor, partial curve]"}
{"smiles": "O=C(CNS(=O)(=O)c1ccc2ccccc2c1)OCC(=O)c1ccc(Br)s1", "Potency": "inconclusive: 25.1 µM [inhibitor, partial curve]"}
{"smiles": "CNC(=O)c1ccc(-c2sc3nc(N4CCOCC4)c4c(c3c2N)CC(C)(C)OC4)o1", "Potency": "inconclusive: 15.8 µM [inhibitor, partial curve, poor fit]"}
{"smiles": "COC(=O)c1ccccc1NC(=O)c1sc(=S)n(C)c1N", "Potency": "inconclusive: 25.1 µM [inhibitor, single point]"}
{"smiles": "CC(=O)N=c1sc2nc3ccccc3nc2n1N(C(C)=O)C(C)=O", "Potency": "inconclusive: 25.1 µM [inhibitor, single point]"}
{"smiles": "CN1c2ccccc2C(C)(C)C12C=Nc1c(ccc3ccccc13)O2", "note": "(centres undefined)", "Potency": "inconclusive: 31.6 µM [inhibitor, single point]"}
{"smiles": "COc1ccc(C(=O)n2nc(-c3ccc(Cl)cc3)nc2N)cc1OC", "Potency": "inconclusive: 25.1 µM [inhibitor, single point]"}
{"smiles": "Cc1ccc(-n2c(C)cc(/C=N/Nc3ccc([N+](=O)[O-])cn3)c2C)cc1", "Potency": "inconclusive: 31.6 µM [inhibitor, single point]"}
{"smiles": "CCOC(=O)c1c(-c2cccc(C)c2)csc1NC(=O)C1CC=CCC1C(=O)O", "note": "(centres undefined)", "Potency": "inconclusive: 15.8 µM [inhibitor, partial curve, poor fit]"}
{"smiles": "COc1ccc(-n2c(-c3cccc(C)c3[N+](=O)[O-])n[nH]c2=S)cc1", "Potency": "inconclusive: 10 µM [inhibitor, partial curve]"}
{"smiles": "Cc1cc(NC(=O)CSC2=NCCS2)no1", "activity change, negative = inhibition": "inactive: -3.92%"}
{"smiles": "Cc1nnc(NC(=O)c2ccncc2)s1", "activity change, negative = inhibition": "inactive: 5.17%"}
{"smiles": "CS(=O)(=O)Nc1cccc(-c2cncnc2Nc2ccc(F)cc2)c1", "activity change, negative = inhibition": "inactive: -25.8%"}
{"smiles": "CCC(C)C1NC(=O)C(CCNCS(=O)(=O)O)NC(=O)C(NC(=O)C(CCNCS(=O)(=O)O)NC(=O)C(NC(=O)C(CCNCS(=O)(=O)O)NC(=O)CCCCC(C)C)C(C)O)CCNC(=O)C(C(C)O)NC(=O)C(CCNCS(=O)(=O)O)NC(=O)C(CCNCS(=O)(=O)O)NC(=O)C(C(C)CC)NC1=O", "note": "(centres undefined) ({Heptanoyl(6-Me)}-[ξDab(CH2SO3H)]T[ξDab(CH2SO3H)][Dab][ξDab(CH2SO3H)]II[ξDab(CH2SO3H)][ξDab(CH2SO3H)]T; lactam 4-C; configuration not given here)", "Potency": "active: 3.98 µM"}
{"smiles": "Cc1ccc(S(=O)(=O)/C(C#N)=C/c2c(N3CCC(C(N)=O)CC3)nc3c(C)cccn3c2=O)cc1", "Potency": "inconclusive: 31.6 µM [inhibitor, partial curve]"}
{"smiles": "Cn1cc(/C=C2/SC(=O)N(c3ccccc3)C2=O)c2ccccc21", "Potency": "inconclusive: 12.6 µM [inhibitor, partial curve]"}
{"smiles": "Cc1ccc(C(=O)c2c(C)oc3c2C(=O)C(=O)c2ccccc2-3)cc1", "Potency": "active: 25.1 µM"}
{"smiles": "FC(F)(F)c1cccc(NC(=S)Nc2ccc(Cl)cc2Cl)c1", "Potency": "inconclusive: 31.6 µM [inhibitor, single point]"}
{"smiles": "O=C(CCCn1c(SCC(=O)c2ccc(O)c(O)c2)nc2ccccc2c1=O)NCC1CCCO1", "note": "(centres undefined)", "Potency": "inconclusive: 15.8 µM [inhibitor, partial curve]"}
{"smiles": "Cc1ccc(-c2n[nH]c(=S)n2Cc2ccccc2)cc1", "Potency": "inconclusive: 25.1 µM [inhibitor, single point]"}
{"smiles": "CC(=O)C(=Nc1ccc(Cl)cc1Cl)NNc1cccc(Cl)c1", "Potency": "inconclusive: 12.6 µM [inhibitor, partial curve]"}
{"smiles": "O=C(NC(=S)Nc1cccc2cccnc12)c1ccccc1", "Potency": "inconclusive: 12.6 µM [inhibitor, partial curve]"}
{"smiles": "CCN(CC)c1ccc(NC(=O)C2CC3CCC2C3)cc1", "note": "(centres undefined)", "Potency": "inconclusive: 15.8 µM [inhibitor, partial curve]"}
{"smiles": "CCn1c(=N)c(S(=O)(=O)c2ccc(F)cc2)cc2c(=O)n3ccccc3nc21", "Potency": "inconclusive: 3.98 µM [inhibitor, partial curve]"}
